“And” between values parts separate entries of the source, which are not always exact repeats. Equal entries are not always repeated. The source gives many values for each of these; only a part stands here.
Assay: Clinical pharmacokinetic study (RUN-001): vortioxetine 5 mg once daily for 29 days, then 28 days washout, obese vs normal-weight subjects
Assay type: in vivo, human
Details: for T1/2: individual subjects, EM
Experimental: To test if the obese patients would require different washout guidelines for preventing serotonin syndrome, 16 obese subjects (BMI≥35) and 13 normal subjects (BMI<25) completed a clinical trial where they were administered daily with low doses (5 mg/day) of vortioxetine for 29 days in a controlled study. All subjects were subsequently tracked for 28 days after discontinuing vortioxetine on day 29. Blood samples were collected and processed according to standard techniques.
The normal-weight control group consisted of healthy male and female volunteers aged 18 to 45 years. Their body mass index (BMI) values fell in the range of […]. […] Normal weight and obese subjects were matched as closely as possible for gender and age.
CYP2D6 genotype status was determined from whole blood samples drawn from each subject. Known alleles of CYP2D6 were tested for, as well as the presence of gene duplications (LabCorp, Inc.). CYP2D6 metabolizer status was categorized as ultra-rapid, extensive, intermediate, or poor. Ultra-rapid and poor metabolizers were not included in the study.
All subjects received vortioxetine, 5 mg once daily in the morning, for 29 days. The first dose was on Day 1, and the last dose was on Day 29. Blood sampling continued for another 28 days after the last dose, through Day 57.
Subjects spent 12 hours in the study unit on Day 1 (first dose of vortioxetine) and Day 29 (last dose of vortioxetine). On those two study days, venous blood samples (7 mL each) were drawn prior to the dose of vortioxetine, and at 1, 2, 4, 6, 8, 10, and 12 hours after dosage.
During the 29-day period of daily vortioxetine administration, subjects returned to the study unit in the morning of the following study days: 2, 3, 5, 8, 10, 12, 15, 17, 19, 22, 24, 26, and 29. At each visit, a single venous blood sample (7 mL) was drawn before the daily dose of vortioxetine. Subjects underwent a brief interview to assess subjective effects and possible adverse events. Subjects were then discharged until the next scheduled visit. They were provided with vortioxetine doses sufficient for daily morning administration until the next visit. No more than 2 consecutive doses of vortioxetine were taken on an outpatient basis.
On Day 29 (the final dose of vortioxetine), subjects spent 12 hours in the study unit as described above. They returned to the study unit for a single blood sample on the mornings of the following Days: 30, 31, 33, 36, 38, 40, 43, 45, 47, 50, 52, 54, and 57.
Plasma concentrations of vortioxetine were determined by liquid chromatography—mass spectrometry using a Shimadzu HPLC system coupled to a Sciex API-4000 mass spectrometer.
The internal standard (vortioxetine-d8) was added to calibration standards, quality control samples, and unknown study samples. All samples were extracted with methyl tert-butyl ether. The organic phase was separated and evaporated to dryness; the reconstituted extract was injected into the HPLC system. The HPLC column was a Unison UK-C18, 50 mm×2 mm, 3 micron particle size. The mobile phase consisted of an organic component (0.1% formic acid in acetonitrile) and an aqueous component (0.1% formic acid and 2 mM ammonium acetate in water). This was delivered in gradient mode at a net flow rate of 0.4 mL/min, with the organic fraction varying from 40% to 96%. m/z monitored were: 299.1/150.1 for vortioxetine, and 307.1/153 for vortioxetine-d8. The limit of quantitation was 0.1 ng/mL. […] All samples from a given study subject were extracted and analyzed at the same time using the same calibration standards.
Based on the clinical trials discussed above, several equations were derived which allow an individual to calculate the washout period (i.e., the time between stopping vortioxetine and initiating treatment with an MAOI). Data points to consisted of pre-dose plasma vortioxetine concentration (C) on each study day (t), both during (Days 1-29) and after (Days 30-57) the period of vortioxetine administration. […]

Half-Life Max (Normal cohort): 79.8 h
Half-Life Min (Normal cohort): 30.3 h
MAOI Delay at 7.5 × Half-Life, Average (Normal cohort): 2.4 Weeks
MAOI Delay at 7.5 × Half-Life, Max (Normal cohort): 3.6 Weeks
MAOI Delay at 7.5 × Half-Life, Min (Normal cohort): 1.4 Weeks
Accumulation half-life (Normal-weight subjects, 5 mg/day, mean ± SD): 55.4 ± 18.7 h
Half-Life Max (Obese cohort): 171.0 h
Half-Life Min (Obese cohort): 53.9 h
MAOI Delay at 7.5 × Half-Life, Average (Obese cohort): 3.5 Weeks
MAOI Delay at 7.5 × Half-Life, Max (Obese cohort): 7.6 Weeks
MAOI Delay at 7.5 × Half-Life, Min (Obese cohort): 2.4 Weeks
washout interval before MAOI (mean obese half-life / mean control half-life × 21 days) (obese individuals, BMI exceeding 35 kg/m^2): at least 31 days
Structure (SMILES): Cc1ccc(Sc2ccccc2N2CCNCC2)c(C)c1 [vortioxetine]
T1/2 (Normal cohort (BMI<25)): 40.9 h and 42.1 h and 48.6 h and 64.6 h and 48.3 h and 53.5 h and 30.3 h and 51.2 h and 79.8 h and 63.9 h and 52.8 h and 50.7 h
T1/2 (Obese cohort (BMI>=35)): 129 h and 67.8 h and 57.8 h and 93.9 h and 68.5 h and 53.9 h and 76.7 h and 74.0 h and 66.9 h and 71.0 h and 84.6 h and 56.3 h and 55.9 h and 54.5 h and 83.7 h

— US12508261B2, “Methods of treating depression with vortioxetine” (Rundle Research LLC, priority 2017, dated 2025)
